Consider 31 compounds from patent US9650358B2 (priority 2013, dated 2017).

The EC50 is the concentration giving half of the maximal effect.

The subject of the test is H929 cells. As to the kind of experiment: cells. The conditions noted are these: Homo sapiens, NCI-H929, 24 h, read-out: H929 viability EC50.

Turning to `O=C(Nc1cc(-c2ccc3ncn(CC4CCOCC4)c3c2)c(Cl)cn1)C1CC2(CNC2)C1` [Example 268, N-{5-chloro-4-[1-(tetrahydro-2H-pyran-4-ylmethyl)-1H-benzimidazol-6-yl]pyridin-2-yl}-2-azaspiro[3.3]heptane-6-carboxamide], the EC50 is 680 nM.
The same measure for `O=C1CC(C(=O)Nc2cc(-c3ccc4ncn(CC5CCOCC5)c4c3)c(Cl)cn2)C1` [Example 270, N-{5-chloro-4-[1-(tetrahydro-2H-pyran-4-ylmethyl)-1H-benzimidazol-6-yl]pyridin-2-yl}-3-oxocyclobutanecarboxamide]: 590 nM; for `O=C(Nc1cc(-c2ccc3ncn(Cc4cccc(F)c4)c3c2)c(Cl)cn1)C1CCc2nncn2C1` (stereo not shown) [Example 275, N-{5-chloro-4-[1-(3-fluorobenzyl)-1H-benzimidazol-6-yl]pyridin-2-yl}-5,6,7,8-tetrahydro[1,2,4]triazolo[4,3-a]pyridine-6-carboxamide]: 1500 nM.
The same measure for `O=C(Nc1cc(-c2ccc3ncn(Cc4cccc(F)c4)c3c2)c(Cl)cn1)C1CCc2nccn2C1` (stereo not shown) [Example 276, N-{5-chloro-4-[1-(3-fluorobenzyl)-1H-benzimidazol-6-yl]pyridin-2-yl}-5,6,7,8-tetrahydroimidazo[1,2-a]pyridine-6-carboxamide]: 120 nM.
For `NS(=O)(=O)CC(=O)Nc1cc(-c2ccc3ncn(Cc4cccc(F)c4)c3c2)c(Cl)cn1` [Example 278, N-{5-chloro-4-[1-(3-fluorobenzyl)-1H-benzimidazol-6-yl]pyridin-2-yl}-2-sulfamoylacetamide] the value was 420 nM; for `CN1CCN(S(=O)(=O)CC(=O)Nc2cc(-c3ccc4ncn(Cc5cccc(F)c5)c4c3)c(Cl)cn2)CC1` [Example 279, N-{5-chloro-4-[1-(3-fluorobenzyl)-1H-benzimidazol-6-yl]pyridin-2-yl}-2-[(4-methylpiperazin-1-yl)sulfonyl]acetamide], 1700 nM.
Regarding `O=C1CC[C@H](C(=O)Nc2cc(-c3ccc4ncn(Cc5cccc(F)c5)c4c3)c(Cl)cn2)N1` [Example 280, N-{5-chloro-4-[1-(3-fluorobenzyl)-1H-benzimidazol-6-yl]pyridin-2-yl}-5-oxo-D-prolinamide], the EC50 stood at 290 nM.
The same measure for `O=C(Nc1cc(-c2ccc3ncn(CC4CCOCC4)c3c2)c(Cl)cn1)C1CCc2nncn2C1` (stereo not shown) [Example 283, N-{5-chloro-4-[1-(tetrahydro-2H-pyran-4-ylmethyl)-1H-benzimidazol-6-yl]pyridin-2-yl}-5,6,7,8-tetrahydro[1,2,4]triazolo[4,3-a]pyridine-6-carboxamide]: greater than 10000 nM; for `O=C(Nc1cc(-c2ccc3ncn(CC4CCOCC4)c3c2)c(Cl)cn1)C1CCc2nccn2C1` (stereo not shown) [Example 284, N-{5-chloro-4-[1-(tetrahydro-2H-pyran-4-ylmethyl)-1H-benzimidazol-6-yl]pyridin-2-yl}-5,6,7,8-tetrahydroimidazo[1,2-a]pyridine-6-carboxamide]: 2800 nM; for `NS(=O)(=O)CC(=O)Nc1cc(-c2ccc3ncn(CC4CCOCC4)c3c2)c(Cl)cn1` [Example 286, N-{5-chloro-4-[1-(tetrahydro-2H-pyran-4-ylmethyl)-1H-benzimidazol-6-yl]pyridin-2-yl}-2-sulfamoylacetamide]: 2400 nM.
For `CCS(=O)(=O)NCC(=O)Nc1cc(-c2ccc3ncn(CC4CCOCC4)c3c2)c(Cl)cn1` [Example 287, N-{5-chloro-4-[1-(tetrahydro-2H-pyran-4-ylmethyl)-1H-benzimidazol-6-yl]pyridin-2-yl}-N^2-(ethylsulfonyl)glycinamide], the EC50 was 1100 nM.
In the case of `O=C1CC[C@H](C(=O)Nc2cc(-c3ccc4ncn(CC5CCOCC5)c4c3)c(Cl)cn2)N1` [Example 288, N-{5-chloro-4-[1-(tetrahydro-2H-pyran-4-ylmethyl)-1H-benzimidazol-6-yl]pyridin-2-yl}-5-oxo-D-prolinamide], the EC50 worked out at 1400 nM.
For the compound `CN(C)S(=O)(=O)NCC(=O)Nc1cc(-c2ccc3ncn(CC4CCOCC4)c3c2)c(Cl)cn1` [Example 289, N-{5-chloro-4-[1-(tetrahydro-2H-pyran-4-ylmethyl)-1H-benzimidazol-6-yl]pyridin-2-yl}-N^2-(dimethylsulfamoyl)glycinamide], the EC50 amounted to 2400 nM.
For `N[C@H]1C[C@@H](C(=O)Nc2cc(-c3ccc4ncn(CC5CCOCC5)c4c3)c(Cl)cn2)C1` [Example 292, cis-3-amino-N-{5-chloro-4-[1-(tetrahydro-2H-pyran-4-ylmethyl)-1H-benzimidazol-6-yl]pyridin-2-yl}cyclobutanecarboxamide] the value was 590 nM; for `N[C@H]1C[C@H](C(=O)Nc2cc(-c3ccc4ncn(CC5CCOCC5)c4c3)c(Cl)cn2)C1` [Example 293, trans-3-amino-N-{5-chloro-4-[1-(tetrahydro-2H-pyran-4-ylmethyl)-1H-benzimidazol-6-yl]pyridin-2-yl}cyclobutanecarboxamide], 280 nM; for `NC1CC2(C1)CC(C(=O)Nc1cc(-c3ccc4ncn(CC5CCOCC5)c4c3)c(Cl)cn1)C2` (stereo not shown) [Example 296, 6-amino-N-{5-chloro-4-[1-(tetrahydro-2H-pyran-4-ylmethyl)-1H-benzimidazol-6-yl]pyridin-2-yl}spiro[3.3]heptane-2-carboxamide], 890 nM.
In the case of `O=C(Cn1ccc2ncc(-c3cc(NC(=O)[C@@H]4CCCNC4)ncc3Cl)cc21)c1cccc(F)c1` [Example 303, (3R)—N-(5-chloro-4-{1-[2-(3-fluorophenyl)-2-oxoethyl]-1H-pyrrolo[3,2-b]pyridin-6-yl}pyridin-2-yl)piperidine-3-carboxamide], the EC50 is 1800 nM.
As to `O=C1CC(C(=O)Nc2cc(-c3cnc4ccn(Cc5cncc(F)c5)c4c3)c(Cl)cn2)C1` [Example 304, N-(5-chloro-4-{1-[(5-fluoropyridin-3-yl)methyl]-1H-pyrrolo[3,2-b]pyridin-6-yl}pyridin-2-yl)-3-oxocyclobutanecarboxamide], the EC50 was 690 nM.
For `Cn1nnc2ccc(Cn3ccc4ncc(-c5cc(NC(=O)[C@@H]6CCCNC6)ncc5Cl)cc43)cc21` [Example 305, (3R)—N-(5-chloro-4-{1-[(1-methyl-1H-benzotriazol-6-yl)methyl]-1H-pyrrolo[3,2-b]pyridin-6-yl}pyridin-2-yl)piperidine-3-carboxamide] the value was 2300 nM.
In the case of `O=C(Cn1ccc2ncc(-c3cc(NC(=O)[C@@H]4CCCNC4)ncc3Cl)cc21)C1CCOCC1` [Example 306, (3R)—N-(5-chloro-4-{1-[2-oxo-2-(tetrahydro-2H-pyran-4-yl)ethyl]-1H-pyrrolo[3,2-b]pyridin-6-yl}pyridin-2-yl)piperidine-3-carboxamide], the EC50 amounted to 6900 nM.
In the case of `O=C(Nc1cc(-c2cnc3ccn(CC(O)C4CCOCC4)c3c2)c(Cl)cn1)[C@@H]1CCCNC1` (stereo partly drawn) [Example 307, (3R)—N-(5-chloro-4-{1-[2-hydroxy-2-(tetrahydro-2H-pyran-4-yl)ethyl]-1H-pyrrolo[3,2-b]pyridin-6-yl}pyridin-2-yl)piperidine-3-carboxamide], the EC50 is greater than 10000 nM.
For `C[C@H](c1cccc(F)c1)n1nnc2cc(F)c(-c3cc(NC(=O)[C@@H]4CCCNC4)ncc3Cl)cc21` [Example 309, (3R)—N-(5-chloro-4-{5-fluoro-1-[(1R)-1-(3-fluorophenyl)ethyl]-1H-benzotriazol-6-yl}pyridin-2-yl)piperidine-3-carboxamide] the value was 970 nM; for `COC(=O)c1ccc(Cn2cnc3ccc(-c4cc(NC(=O)[C@@H]5CCCNC5)ncc4Cl)cc32)cc1` [Example 310, methyl 4-{[6-(5-chloro-2-{[(3R)-piperidin-3-ylcarbonyl]amino}pyridin-4-yl)-1H-benzimidazol-1-yl]methyl}benzoate], 360 nM; for `COC(=O)c1ccc(Cn2nnc3ccc(-c4cc(NC(=O)[C@@H]5CCCNC5)ncc4Cl)cc32)cc1` [Example 311, methyl 4-{[6-(5-chloro-2-{[(3R)-piperidin-3-ylcarbonyl]amino}pyridin-4-yl)-1H-benzotriazol-1-yl]methyl}benzoate], 350 nM.
For `O=C(Nc1cc(-c2ccc3ncn(CCCc4cccc(F)c4)c3c2)c(Cl)cn1)[C@@H]1CCCNC1` [Example 312, (3R)—N-(5-chloro-4-{1-[3-(3-fluorophenyl)propyl]-1H-benzimidazol-6-yl}pyridin-2-yl)piperidine-3-carboxamide] the value was 710 nM.
The same measure for `O=C(Nc1cc(-c2ccc3ncn(CC4CCOCC4)c3c2)ccn1)[C@@H]1CCCNC1` [Example 316, (3R)—N-{4-[1-(tetrahydro-2H-pyran-4-ylmethyl)-1H-benzimidazol-6-yl]pyridin-2-yl}piperidine-3-carboxamide]: 470 nM; for `O=C(Nc1cc(-c2cnc3ccn(Cc4cncc(F)c4)c3c2)c(Cl)cn1)[C@@H]1CCCNC1` [Example 317, (3R)—N-(5-chloro-4-{1-[(5-fluoropyridin-3-yl)methyl]-1H-pyrrolo[3,2-b]pyridin-6-yl}pyridin-2-yl)piperidine-3-carboxamide]: 960 nM; for `COc1cc2ncn(Cc3cccc(F)c3)c2cc1-c1cc(NC(=O)[C@@H]2CCCNC2)ncc1Cl` [Example 319, (3R)—N-{5-chloro-4-[1-(3-fluorobenzyl)-5-methoxy-1H-benzimidazol-6-yl]pyridin-2-yl}piperidine-3-carboxamide]: 540 nM.
As to `O=C(O)c1ccc(Cn2cnc3ccc(-c4cc(NC(=O)[C@@H]5CCCNC5)ncc4Cl)cc32)cc1` [Example 320, 4-{[6-(5-chloro-2-{[(3R)-piperidin-3-ylcarbonyl]amino}pyridin-4-yl)-1H-benzimidazol-1-yl]methyl}benzoic acid], the EC50 was greater than 10000 nM.
For `O=C(Nc1cc(-c2ccc3ncn(Cc4cccs4)c3c2)c(Cl)cn1)[C@@H]1CCCNC1` [Example 324, (3R)—N-{5-chloro-4-[1-(thiophen-2-ylmethyl)-1H-benzimidazol-6-yl]pyridin-2-yl}piperidine-3-carboxamide] the value was 280 nM.
For `O=C(Nc1cc(-c2ccc3nnn(Cc4cccs4)c3c2)c(Cl)cn1)[C@@H]1CCCNC1` [Example 325, (3R)—N-{5-chloro-4-[1-(thiophen-2-ylmethyl)-1H-benzotriazol-6-yl]pyridin-2-yl}piperidine-3-carboxamide] the value was 1600 nM.
